Data from PubChem BioAssay (NCI).
Where “and” joins values, the source holds several entries; their conditions need not be identical. Equal entries are not always repeated.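 How tested: cells in 96-well plates exposed to compound for 48 hours at five concentrations. GI50 is the concentration that inhibits growth by half. TGI is the concentration that stops growth completely.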

Test system: NCI-H322M lung
Test: NCI anticancer screen, dose series, 48 h

Compound	GI50	TGI
CNC(=O)c1ccc(-c2cnc3ncc(Cc4ccc5ncccc5c4)n3n2)cc1F	> 100 µM	> 100 µM
COc1cc(CCCOC2OC(COC3OCC(O)C(O)C3O)C(O)C(O)C2O)cc2cc(-c3ccc4c(c3)OCO4)oc12 (stereo not given)		> 175 µM
Cc1noc(C)c1-c1ccc2[nH]c(=O)n3c2c1OC[C@@H]3c1ccccn1	5.72 µM	> 100 µM
Oc1c(Br)cc(CN(Cc2cc(Br)c(O)c(Br)c2)C2CCCCC2)cc1Br		> 100 µM
Cc1ncc([N+](=O)[O-])n1CCNC(=O)CCCCn1ccnc1[N+](=O)[O-]		> 100 µM
COn1cc(CO)c2ccccc21		> 100 µM
COc1ccc(CCCCl)c(C2=NCCc3ccccc32)c1		> 100 µM
COc1ccc(C2C(N)=NCC2c2ccccn2)cc1 (stereo not given)		> 100 µM
FC(F)=C(c1ccc(-c2ccc(Cl)cc2)cc1)C(F)(F)F		34.8 µM
CCOC(=O)c1[nH]c2nc(SC)nc(NC)c2c1N		> 100 µM
O=[N+]([O-])c1ccc2nc3c(nc2c1)-c1c2ccccc2cc2cccc-3c12		> 100 µM
COc1ccc2c(c1)C=CC(C#N)N2C(=O)c1ccccc1 (stereo not given)	0.821 µM	> 100 µM
COc1cc(/C=C/C(=N\NC(=O)c2ccccc2)c2sc(Nc3ccc(Cl)c(Cl)c3)nc2C)ccc1O		> 100 µM
N/C(CSCCSC/C(N)=N/O)=N\O		> 100 µM
O=C(O)c1cc2ccccc2c(S(=O)(=O)O)c1O		> 100 µM
C=CCOc1c(Br)cc(Br)cc1Br	12.3 µM	94.2 µM
O=C(/C=C1\C[C@H]2C=Nc3ccccc3C(=O)N2C1)NCCCCCNC(=O)/C=C1\C[C@H]2C=Nc3ccccc3C(=O)N2C1		29.8 µM
C=C(COC(C)=O)CC(/C=C(\C)CCC=C(C)C)OC(C)=O (stereo not given)		> 100 µM
CCC1C(=O)OCc2c1cc1n(c2=O)CCC12OCCO2 (stereo not given)		> 100 µM
CNC(=O)c1cn(C[C@H](F)CCc2ccc(NC(=O)Cc3cc(OC4CC(F)(F)C4)cc(C)n3)nn2)nn1	0.167 µM	> 100 µM
CC(=O)[CH-]C(C)=O.CC(=O)[CH-]C(C)=O.N=CC=N.[Sn+2]	10.8 µM	23 µM
CCCCCC(=O)Oc1ccc(/C(=C(\C)c2ccc(OC)cc2)c2ccc(OCCN3CCCCC3)cc2)cc1	13.2 µM	26.5 µM
COC1OC2COC(C)(C)OC2C2OC(C)(C)OC12 (stereo not given)		> 100 µM

Compound	GI50	TGI
CN(C)CCNC(=O)Nc1c(C#N)[n+]([O-])c2cc(Cl)c(Cl)cc2[n+]1[O-]	31.9 µM	> 100 µM
COc1ccc(N2C(=O)C3c4[nH]c5ccccc5c4C4C(C)CCCC4C3C2=O)cc1 (stereo not given)		> 100 µM
Nc1ccc(SC23CC4CC(CC(C4)C2)C3)cc1		> 100 µM
NC(=S)N=Nc1c(O)cc(Nc2ccc(Cl)cc2Cl)c2ccccc12		> 100 µM
C=CC(=O)Nc1cccc(Nc2nc(Nc3ccc(OCCOC)cc3)ncc2F)c1	0.911 µM	11.1 µM
Clc1cc(Cl)c2c(Cl)cc(Cl)c3c2c1N=S=N3		> 100 µM
OCC1OC(O[C@H]2CN3[C@H](O)[C@@H](O)[C@H](O)[C@H]3C2O)C(O)C(O)C1O (stereo not given in full)		> 100 µM
CCOC1NC(=O)c2ccccc21 (stereo not given)		> 100 µM
CN(C)c1nc(=NCc2ccccn2)ss1		> 10 µM
COc1ccc(C2C(C#N)=C(N)OC3=C2CCCc2ccc(F)cc23)cc1OC (stereo not given)	22.2 µM	47.3 µM
COc1cc(/C=C/C(=O)O)ccc1OS(=O)(=O)O		> 100 µM
CC1(C)OC(CCO)CN1C(=O)OCc1ccccc1 (stereo not given)		> 100 µM
Cc1ccc2c(c1)C(=O)/C(=C\c1ccc(Cl)cc1)CCS2(=O)=O		14 µM
COc1cc2nc(-c3c(F)cccc3F)n(Cc3c(F)cccc3F)c2cc1Cc1c(F)cccc1F		> 100 µM
O=S1(=O)c2ccccc2NC(=S)N1c1ccccc1		> 100 µM
CC1=C(C)C(=O)O[C@@H]([C@](C)(O)[C@]2(O)CC[C@@]3(O)[C@@H]4C[C@H]5O[C@]56CC=CC(=O)[C@]6(C)[C@H]4CC[C@]23C)C1	0.44 µM	3.81 µM
CC(=O)O[C@H]1C(=O)[C@@]2(C)[C@H]([C@H](OC(=O)c3ccccc3)[C@]3([O-])C[C@H](OC(=O)[C@H]([O-])[C@@H](NC(=O)c4ccccc4)c4ccccc4)C(C)=C1C3(C)C)[C@]1(OC(C)=O)CO[C@@H]1C[C@@H]2[O-].[Fe+3]	0.161 µM and 0.331 µM	65 µM and > 100 µM
CCOC(=O)Cc1nc(/C(C#N)=C/c2ccco2)[nH]c(=O)c1C#N		> 100 µM
Cc1sc(C)c(-c2ccc(CO)o2)c1-c1ccc(CO)o1	50.5 µM	> 100 µM
CCCSc1cc(Cl)nc(N)n1	> 100 µM	> 100 µM
C[C@H]1CCC/C=C/[C@@H]2C[C@H](N)C[C@H]2[C@H](O)/C=C/C(=O)O1	> 100 µM	> 100 µM
OC(c1ccco1)C(F)(F)c1nc2ccccc2o1 (stereo not given)		> 100 µM
CCCCCCNc1nc(NCCCCCC)c2[nH]c(NCCCCCC)nc2n1	1.65 µM	17 µM

Compound	GI50	TGI
CCc1cc(=O)n(/C(C)=C/c2ccccc2)n1C		> 100 µM
COP(=O)(CC(=O)C1OC(OCc2ccccc2)C(OCc2ccccc2)C(OCc2ccccc2)C1OCc1ccccc1)OC (stereo not given)		> 100 µM
CC(C)(C)C1(O)Cc2ccccc2C(=O)O1 (stereo not given)		> 100 µM
COc1cc(/C=C\c2ccc(O)cc2)cc(OC)c1OC		> 100 µM
O=C1c2ccccc2-c2c1c1ccccc1c(=O)n2CCNCCCNCCn1c2c(c3ccccc3c1=O)C(=O)c1ccccc1-2	0.0231 µM	0.228 µM
CCOC(=O)c1c(NC(=S)Nc2ccc(C)cc2)sc2c1CCN(C)C2		> 100 µM
O=c1c(Cc2ccccc2)c(-c2ccccc2)[nH]n1C1=NCCN1		> 100 µM
N#Cc1c(-c2ccccc2)nc2c(c(-c3ccccc3)nn2-c2ccccc2)c1-c1ccc(O)cc1	1.57 µM	2.96 µM
COc1ccc(C2=NC(C)(C)CO2)cc1		> 100 µM
O=C1c2c(c3c4ccc(Br)cc4oc3c3[nH]c4ccccc4c23)C(=O)N1O	2.88 µM	> 100 µM
COC(=O)C(=O)C(C(=O)C(=O)Nc1cc([N+](=O)[O-])ccc1C#N)c1nc2ccccc2[nH]c1=O (stereo not given)		> 100 µM
C=CC(=O)N1CCN(c2ncnc3c(F)c(-c4c(O)cccc4F)c(Cl)cc23)CC1	14.2 µM	27.3 µM
CC(=O)n1c(-c2ccc(Cl)cc2)nc2c(c1=O)C(c1ccc(Cl)cc1)c1sc3c(Cl)cccc3c1O2 (stereo not given)	1.03 µM	3.44 µM
Cc1ccc(C(=O)c2[nH]c(Nc3cc(C)ccn3)c(C(=S)Nc3ccccc3)c2N)cc1		> 100 µM
CC1(C)OC(=O)C=C([O-])O1.CC1(C)OC(=O)C=C([O-])O1.O=c1c(O)c(-c2ccc([O-])cc2[O-])oc2cc(O)cc(O)c12.[Ti+4]		> 100 µM
CCOC(=O)[C@@H](C)C[C@H](Cc1ccccc1)NC(=O)c1csc([C@@H](C[C@H](C(C)C)N(C)C(=O)[C@@H](NC(=O)[C@H]2CCCCN2C)C(C)(C)C)OC(C)=O)n1	< 0.00167 µM	> 16.7 µM
C/C(=N\Nc1nc2ccccc2s1)c1cccnn1		> 100 µM
CN1CCN(Cc2ccc(NC(=O)c3ccc(C(C)(C)C)c(C#Cc4cnc5cccnn45)c3)cc2C(F)(F)F)CC1	4.63 µM	17.9 µM
COC(=O)C1=C(C(=O)OC)C2(C)CCC(=O)C1O2 (stereo not given)		> 10 µM
COc1cc(-c2c3c(cc4c2OCO4)[C@@H](Nc2ccc4c(c2)Cc2cc(N[C@@H]5c6cc7c(cc6C(c6cc(OC)c(O)c(OC)c6)[C@H]6C(=O)OC[C@H]56)OCO7)ccc2-4)[C@H]2COC(=O)[C@@H]2C3)cc(OC)c1O (stereo not given in full)		> 100 µM
CCOC(=O)C1=C(C)NC(=O)N([N+](=O)[O-])C1c1ccccc1C(F)(F)F (stereo not given)		> 100 µM
